The campaign covered roughly 310,000 compounds. About 14,000 (4.5%) showed an effect of 50% or more. The effect is printed as a negative number. Some of the results follow.
target: human ether-à-go-go-related gene (hERG) potassium channel (human, UniProt Q12809); experiment: primary screen, population patch clamp on CHO cells stably expressing hERG
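Also: peak tail current of the secondary pulse compared with the same well before compound.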

Sequence of human ether-à-go-go-related gene (hERG) potassium channel (Q12809 whole entry, looked up): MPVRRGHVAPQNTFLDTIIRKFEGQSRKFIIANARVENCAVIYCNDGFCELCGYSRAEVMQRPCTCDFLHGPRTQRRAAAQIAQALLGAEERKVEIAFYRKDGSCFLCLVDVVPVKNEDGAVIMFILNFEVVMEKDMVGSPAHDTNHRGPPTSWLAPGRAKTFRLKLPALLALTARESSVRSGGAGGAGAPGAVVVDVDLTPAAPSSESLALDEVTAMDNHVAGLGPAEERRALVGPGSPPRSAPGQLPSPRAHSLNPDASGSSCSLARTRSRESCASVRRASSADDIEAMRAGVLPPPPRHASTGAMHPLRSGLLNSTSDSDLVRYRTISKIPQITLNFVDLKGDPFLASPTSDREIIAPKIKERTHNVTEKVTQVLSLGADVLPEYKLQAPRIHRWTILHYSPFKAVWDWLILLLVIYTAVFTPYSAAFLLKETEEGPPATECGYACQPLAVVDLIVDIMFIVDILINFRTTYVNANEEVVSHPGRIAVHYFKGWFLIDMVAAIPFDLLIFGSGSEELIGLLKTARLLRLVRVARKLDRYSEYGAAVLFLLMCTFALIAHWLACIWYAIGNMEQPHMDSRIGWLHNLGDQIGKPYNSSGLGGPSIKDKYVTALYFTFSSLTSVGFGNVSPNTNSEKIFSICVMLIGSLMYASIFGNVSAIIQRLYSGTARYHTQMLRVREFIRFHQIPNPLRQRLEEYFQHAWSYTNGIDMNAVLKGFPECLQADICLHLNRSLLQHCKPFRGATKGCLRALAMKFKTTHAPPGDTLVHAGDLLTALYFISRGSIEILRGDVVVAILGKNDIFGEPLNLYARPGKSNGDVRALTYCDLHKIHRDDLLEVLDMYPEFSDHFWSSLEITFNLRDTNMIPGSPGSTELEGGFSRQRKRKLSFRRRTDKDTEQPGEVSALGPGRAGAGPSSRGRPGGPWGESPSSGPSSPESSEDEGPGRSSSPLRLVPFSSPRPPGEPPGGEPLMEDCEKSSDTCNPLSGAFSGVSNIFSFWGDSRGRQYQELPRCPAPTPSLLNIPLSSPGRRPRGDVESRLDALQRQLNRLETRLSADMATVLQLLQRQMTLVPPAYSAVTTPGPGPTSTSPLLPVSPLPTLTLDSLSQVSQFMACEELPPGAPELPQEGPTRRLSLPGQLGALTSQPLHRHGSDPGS

Compound	hERG current change (%, negative = inhibition) at 10uM [%]
CCC1(CC)C(=O)N(C)C(=O)NC1=NCc1ccccc1	-4.02
CCN(CC)CCNC(=O)c1ccc2c(c1NCCO)C(=O)c1ccccc1C2=O	-28.5
O=C(O)CC(NC(=O)C12CC3CC(CC(C3)C1)C2)c1ccc(F)cc1 (centres unmarked)	17.6
Cc1ccc(NC(=S)N(CCN(C)C)Cc2cc3cc(C)cc(C)c3[nH]c2=O)cc1	-7.41
N#Cc1ccc(C23CC4(C2)[C@H](CN(Cc2ccc(C(F)(F)F)cc2)[C@@H]4c2ccccc2)C3c2ccc(C(F)(F)F)cc2)cc1 (some centres unmarked)	16.8
COc1cc(C(=O)NC(c2ccccc2)c2ccccc2)cc(OC)c1C	15.2
CC(=O)/C=C/c1ccc2ccccc2n1	-0.352
CCC(C)n1[nH]c(=O)c2c(C)cc(C)nc21 (centres unmarked)	16.1
CCOC(=O)c1ccccc1NC(=O)C1=COCCO1	9.9
CCC(=O)c1cn(CC(=O)O)c2ccccc12	24.8
CS(=O)(=O)Nc1ccc(C2=NN(S(C)(=O)=O)C(c3ccccc3)C2)cc1 (centres unmarked)	-73.6
COc1cccc(Oc2cn[nH]c2-c2ccc(O)cc2O)c1	-5.4
CC(=O)N(C)c1ccc(NS(=O)(=O)c2cc(Cl)ccc2Cl)cc1	3.49
CCN(CC)P(=O)(NC(=O)C(Cl)(Cl)Cl)N(CC)CC.[Cl-].[Cl-].[Cl-].[Nd+3]	6.12
CCOC(=O)C(/C(C)=N/NC(=O)c1ccccc1[N+](=O)[O-])C(C)C (centres unmarked)	-1.38
Cc1ccccc1Cn1cnc2c(oc3ccccc32)c1=O	9.69
COc1ccc(N2C(=O)CS(=O)C(c3ccccc3)C2=O)cc1 (centres unmarked)	-7.59
CCOC(=O)/C(C#N)=C/c1ccc(OCC(=O)Nc2ccc(C)c(C)c2)c(OC)c1	6.06
CCNC(=O)CC1SC(=Nc2ccc(Cl)cc2)N(CC)C1=O (centres unmarked)	-0.837
CCOC(=O)c1ccc(NC(=O)C2CCCN(S(=O)(=O)c3ccc(F)cc3)C2)cc1 (centres unmarked)	-15.1
COC(=O)CN1C(=O)C2(C(C#N)=C(N)Oc3ccccc32)C2=C1CC(C)(C)CC2=O (centres unmarked)	17.1
O=C(Nc1cc(Cl)ccc1F)c1ccc(-n2cncn2)c([N+](=O)[O-])c1	-30.1
O=S(=O)(NC1CC1)c1ccc2c3c(cccc13)CC2	6.08

Compound	hERG current change (%, negative = inhibition) at 10uM [%]
S=C(N/N=C/c1ccc2ncccc2c1)Nc1cccnc1	8.66
Cc1ccc(NC(=O)C2CC(=O)N(c3ccc4c(c3)OCCO4)C2)nc1 (centres unmarked)	-6.36
CC1(C)C(C=C(Cl)Cl)C1C(=O)N1CCN(c2ccccc2)CC1 (centres unmarked)	-37
Cc1csc(Nc2ccc(C(=O)O)cc2)n1	6.71
COc1ccc(CCN(C)C2CCCN(C(=O)Cn3cnnn3)C2)cc1OC (centres unmarked)	10.2
O=C(c1ccc(Br)c([N+](=O)[O-])c1)N1CCN(Cc2ccccc2)CC1	-61.2
CCOC(=O)C1C(=O)OC2(CCOC(C)(C)C2)C1C(=O)OCC (centres unmarked)	5.89
CCCn1c(C(C)Nc2nc(-c3ccc(C)cc3)cs2)nc2ccccc21 (centres unmarked)	19.7
Fc1cccc(/C=N/Nc2ccccn2)c1	21.6
CN(C)C(=O)c1ccc(-n2nc(C(F)(F)F)c3c2CCCC3)cc1	-8.71
COc1ccccc1C(=O)Nn1c(-c2cccs2)nc2ccccc2c1=O	-2.66
Cc1csc(SCC(=O)Nc2cc([N+](=O)[O-])ccc2F)n1	-12.4
CCN(CC)CCCNC(=O)c1[nH]c(C)c(C(=O)NC2CCCCC2)c1C	12.9
CCCCn1c(O)c(N=NC(=O)c2ccco2)c2ccccc21	-14.3
COc1cc2c(cc1NC(=O)CSc1nnc(COc3ccc(Cl)cc3)n1C)oc1ccccc12	6.05
CC(=O)c1cnc(-c2ccccc2Cl)s1	15.5
O=C(CN1CCN(Cc2ccccc2)CC1)Nc1ccccc1-c1ccccc1	-89.8
O=C(NCCOc1ccccc1)C1CCC(=O)N(CCc2ccc(Cl)cc2)C1 (centres unmarked)	-88.2
COc1ccc(C(=O)Nc2nncs2)cc1S(=O)(=O)N1CCOCC1	15.1
CC(=O)c1ccc(NC(=O)N2CCc3ccccc3C2)cc1	-0.383
CNC(=O)CSc1nnc(SCCC(=O)O)s1	8.17
Cc1ccc(CN2CCN(CCCn3cccn3)CC2CCO)cc1 (centres unmarked)	-66.9
COc1ccc(CCNC(=O)CC2Nc3cc(C)c(C)cc3NC2=O)cc1OC (centres unmarked)	4.98

Compound	hERG current change (%, negative = inhibition) at 10uM [%]
CN(CC(=O)Nc1ccc2c(c1)OCCO2)Cc1nc2ccccc2c(=O)[nH]1	-1.08
O=C(CCCc1ccccc1)NCCN1CCOCC1	-4.9
COc1ccccc1CNc1nc(S(=O)(=O)c2ccccc2)c(Cl)s1	-0.147
CCOC(=O)c1sc(NC(=O)c2ccc(C)o2)nc1C	-5.35
O=C(CNc1ccc2c(c1)OCO2)N/N=C\c1cn(Cc2ccccc2)c2ccccc12	15.9
O=C(NCc1cccnc1)c1ccc(S(=O)(=O)N2CCOCC2)cc1	-8.02
Cc1c(-c2cccs2)[n+](=O)c2c(n1[O-])CCCC2	2.34
O=C(N/N=C/c1c(-c2ccccc2)[nH]c2ccccc12)c1cccnc1	-33.2
S=c1[nH]ncn1/N=C/c1ccccc1	16.8
O=C(OCn1nnc2ccccc2c1=O)c1ccc(O)cc1	-24.5
Cc1ccc(N2C(=O)/C(=C/N3CCN(C(=O)c4ccco4)CC3)C(=O)NC2=S)cc1C	18.3
COC(=O)c1cc2c(ccn2-c2ccc(F)cc2)n1Cc1cccc(OC)c1	0.0373
N=C1/C(=C/c2coc3ccccc3c2=O)C(=O)N=C2SC(c3ccco3)=NN12	12.8
CCC(C)(CC(=O)N(C)CCC#N)c1ccccc1 (centres unmarked)	-0.111
Cc1cccc(OCCn2c(=O)sc3ccccc32)c1	-3.38
CN(C)CCCN(C(=O)c1ccc2c(c1)CCCC2)c1nc2cc3c(cc2s1)OCO3.Cl	-71
CN(Cc1cccs1)C(=O)/C=C/c1ccccc1[N+](=O)[O-]	-4.36
CN1CCc2c(sc3c2C(=O)NC(c2cccc(OC(=O)c4cccs4)c2)N3)C1 (centres unmarked)	-4.38
COc1ccccc1C(CNC(=O)c1cccc(S(=O)(=O)NCc2ccccc2)c1)N(C)C (centres unmarked)	-39.1
COc1cccc(-n2c(=S)sc3c(=O)n(-c4ccccc4C)c(SCC(=O)O)nc32)c1	16.5
CCOC(=O)c1c(C)[nH]c(C)c1C(=O)CSc1nnc(N)s1	9.9
CNc1nnc(SCC(=O)c2cc(C)n(C3CC3)c2C)s1	4.59
O=C(Cc1ccccc1)NN1C(=O)/C(=C/c2ccc(C(=O)O)cc2)SC1=S	17.2

Compound	hERG current change (%, negative = inhibition) at 10uM [%]
Cc1cc(C)c(S(=O)(=O)N2CCOCC2)c(C)c1N(C)S(=O)(=O)c1ccccc1	-26.9
c1ccc(-c2cncnc2)cc1	6.07
CCC(C)c1nc2ccsc2c(N2CCOC2=O)c1-c1ccccc1 (centres unmarked)	-20.1
CCCCC(=O)N1CC(=O)Nc2ccc(F)cc2C1c1ccccc1 (centres unmarked)	0.246
COC(=O)c1c(-c2ccc(C(C)(C)C)cc2)csc1NC(=O)C1C2CCC(O2)C1C(=O)O (centres unmarked)	4.24
Cc1sc2ncnc(SCC(=O)NC3CC3)c2c1C	-15.2
NC(=S)N/N=C/c1ccc(-c2cc(Cl)cc(Cl)c2)o1	3.99
COc1ccc(-c2nn(-c3ccccc3)cc2/C=C(\C#N)C(N)=O)cc1[N+](=O)[O-]	50.5
CC(=O)c1ccc(N2Cc3ccccc3/C2=N\C(=O)Nc2ccc(Cl)cc2)cc1	-7.23
Cc1cccc(-n2c(C)cc(/C=N/NC(=O)c3cccc([N+](=O)[O-])c3C)c2C)c1	16.8
CCOC(=O)CC(=O)CSc1nc2ccccc2c(=O)n1-c1ccc(C(=O)N2CCOCC2)cc1	11.2
COc1cc(C(=S)N2CCCC2)cc(OC)c1O	8.88
c1ccc(CNCC2COc3ccccc3O2)cc1 (centres unmarked)	8.17
Cc1ccc2cc(C#N)c(SCC(=O)NCc3ccco3)nc2c1	9.57
N/C(=N\OC(=O)c1ccc([N+](=O)[O-])cc1)c1cccnc1	-10.7
Cc1ccc(Oc2ccccc2/C=C/C(=O)O)cc1	14.6
C=CCCCCCCCCC(=O)NNC1=CC(=O)CC(C)(C)C1	-11
CCn1c(=O)cc(SCC(=O)NCCCN2CCC(C)CC2)c2ccccc21	-13
O=C(CN1C(=O)/C(=C\c2ccccc2Br)Oc2ccccc21)NCCCN1CCOCC1	-17.8
CCOC(=O)c1cc(S(=O)(=O)N2CCOCC2)cn1C	18.5

From paper PMC4336329 (PLoS ONE, 2015)
